The target in experiment [1] is T1, human Gas6 (growth arrest-specific 6) (human, UniProt Q14393 49-678, limits assumed).
T1 construct: Bought from R&D Systems
T1 sequence (looked up): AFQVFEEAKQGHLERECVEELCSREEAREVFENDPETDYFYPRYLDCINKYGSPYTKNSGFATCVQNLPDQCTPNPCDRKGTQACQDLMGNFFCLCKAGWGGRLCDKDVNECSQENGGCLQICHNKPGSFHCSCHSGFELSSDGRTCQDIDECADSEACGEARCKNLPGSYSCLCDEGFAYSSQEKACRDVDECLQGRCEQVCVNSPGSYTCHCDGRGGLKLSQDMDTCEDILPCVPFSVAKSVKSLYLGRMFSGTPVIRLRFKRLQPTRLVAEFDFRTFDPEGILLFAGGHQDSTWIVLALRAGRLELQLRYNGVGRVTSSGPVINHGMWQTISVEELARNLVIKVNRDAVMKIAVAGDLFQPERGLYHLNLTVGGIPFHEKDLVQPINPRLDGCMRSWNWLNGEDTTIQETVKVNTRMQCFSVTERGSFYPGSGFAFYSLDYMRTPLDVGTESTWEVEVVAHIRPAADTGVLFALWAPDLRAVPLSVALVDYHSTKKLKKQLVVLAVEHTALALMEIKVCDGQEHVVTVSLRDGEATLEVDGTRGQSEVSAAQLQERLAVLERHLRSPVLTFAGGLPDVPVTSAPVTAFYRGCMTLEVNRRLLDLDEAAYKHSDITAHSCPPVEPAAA
In words: assay not named in Example 1.

Experiment [2] has as its target T1, human Gas6 (growth arrest-specific 6). In words: KinExA equilibrium titration, 50 pM Gas6 (light open diamonds). For orientation: In KinExA the mixture passes briefly over coated beads that capture the unbound partner.
Experiment [3] shares this target. Description: KinExA direct inject kinetics (Axl and Gas6 briefly mixed, not at equilibrium).
The target is the same in experiment [4]. In words: KinExA (koff calculated as Kd x kon).
The target is the same in experiment [5]. In words: KinExA direct inject.
For experiment [6] the target is unchanged. Description: KinExA direct inject. The source holds these as a separate data set.
Experiment [7] shares this target. Description: KinExA (koff calculated as Kd x kon). This is another data set of the same source.
The target is the same in experiment [8]. Description: KinExA equilibrium titration, 500 pM Gas6 (heavy open diamonds).
For experiment [9], the target named is T2, mouse Gas6 (mouse, UniProt Q61592 46-674, limits assumed).
T2 construct: Used both for the KinExA value against mouse Gas6 and for the endogenous Gas6 in the serum of the nude mice; also called Gas6 (in serum of mice)
T2 sequence (looked up): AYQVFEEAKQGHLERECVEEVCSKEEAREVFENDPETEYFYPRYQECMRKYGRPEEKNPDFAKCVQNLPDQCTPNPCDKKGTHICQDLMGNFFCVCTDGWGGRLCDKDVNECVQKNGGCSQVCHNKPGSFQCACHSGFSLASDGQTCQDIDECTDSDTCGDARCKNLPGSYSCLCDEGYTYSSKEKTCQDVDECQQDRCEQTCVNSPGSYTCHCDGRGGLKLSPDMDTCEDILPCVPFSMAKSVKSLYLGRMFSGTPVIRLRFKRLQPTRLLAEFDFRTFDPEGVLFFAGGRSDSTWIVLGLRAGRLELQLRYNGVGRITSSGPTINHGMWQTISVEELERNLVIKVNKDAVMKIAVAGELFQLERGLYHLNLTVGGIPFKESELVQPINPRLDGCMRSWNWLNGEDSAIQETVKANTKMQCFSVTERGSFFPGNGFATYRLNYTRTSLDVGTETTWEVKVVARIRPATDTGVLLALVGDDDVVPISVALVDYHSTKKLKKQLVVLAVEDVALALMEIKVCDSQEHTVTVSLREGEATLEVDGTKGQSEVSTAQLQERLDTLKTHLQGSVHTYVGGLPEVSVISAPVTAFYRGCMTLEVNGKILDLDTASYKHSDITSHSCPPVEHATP
Description: KinExA; column Kd(pM) mGas6.

Experiment [10] deals with T1, human Gas6 (growth arrest-specific 6). Description: KinExA equilibrium titration, 5 nM Gas6 (printed 5 nm; filled diamonds).
For experiment [11], the target named is T2, mouse Gas6. Description: KinExA.

Read-outs that look alike come from different tables or passages of the source.

B1: wild-type Axl Fc (Fc fusion)
chain: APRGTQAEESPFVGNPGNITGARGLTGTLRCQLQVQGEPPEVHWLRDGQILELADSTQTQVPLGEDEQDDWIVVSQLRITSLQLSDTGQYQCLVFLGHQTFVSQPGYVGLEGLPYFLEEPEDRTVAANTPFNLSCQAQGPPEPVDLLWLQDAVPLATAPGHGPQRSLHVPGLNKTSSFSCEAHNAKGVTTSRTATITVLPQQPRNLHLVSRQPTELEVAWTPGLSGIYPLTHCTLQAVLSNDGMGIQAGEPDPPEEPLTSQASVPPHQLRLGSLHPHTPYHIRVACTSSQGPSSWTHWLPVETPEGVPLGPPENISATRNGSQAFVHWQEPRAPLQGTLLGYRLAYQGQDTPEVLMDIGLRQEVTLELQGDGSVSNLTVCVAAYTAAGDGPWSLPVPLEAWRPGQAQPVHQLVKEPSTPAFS
notes: Disulfide-linked dimer from HEK cells; also called (a) Wild-type; Full-length wild-type Fc fusion; not shown: Fc domain of a human IgG1
A word on the Kd: it is the free concentration of one partner at which half of the binding sites on the other are occupied at equilibrium, for simple one-to-one binding. Low values mean a tighter complex, high ones a looser complex. Usually koff stands for the first-order rate constant of dissociation. The term kon denotes the second-order rate constant of association. Read a high kon as faster complex formation. On to B1, for which the Kd in experiment [1] was 9.2 pM; in experiment [9], 1.5 pM; in experiment [11], about 1 pM. Also, the “IC50 (read off the curve)” value was about 10 pM in [2], about 3 nM in [3], about 40 pM in [8] and about 300 pM in [10]. In addition, the koff is 0.00024 s⁻¹ in [4] and 0.000242 s⁻¹ in [7]. The kon in experiment [5] and in [6] was 2.6e+07 M⁻¹ s⁻¹ each time.

(Values after patent US20160266136A1 (Stanford University, published 2016).)
